# Test results published in PMC6212790.
# Some of the results follow. At the low end of the ranking, values are background and their order means little.
# Target: T1, GST-Rok (full length) (UniProt O34857)
# T1 sequence: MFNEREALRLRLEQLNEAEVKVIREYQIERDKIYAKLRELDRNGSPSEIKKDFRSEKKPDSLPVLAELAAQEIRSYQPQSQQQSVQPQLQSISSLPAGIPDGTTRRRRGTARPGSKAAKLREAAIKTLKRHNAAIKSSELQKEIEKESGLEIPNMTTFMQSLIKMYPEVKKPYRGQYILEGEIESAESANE
# Experiment: protein binding microarray;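 note: rank score from −0.5 (least bound) to 0.5 (best bound)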
# Conditions: Rok is a gene silencer of Bacillus subtilis; high values mean tight binding; most listed sequences are background and not binding sites; double strand, one strand shown
row,Sequence,binding signal
1,AGGTCCGG,-0.288 E-score
2,CGGTGACA,0.0245 E-score
3,CACCAGGG,-0.358 E-score
4,CTAGAATC,0.211 E-score
5,AGTGTCCA,-0.0617 E-score
6,AGCACATG,-0.117 E-score
7,CGCCCACG,-0.271 E-score
8,AAGAATAC,0.0942 E-score
9,TGGGCCCA,-0.321 E-score
10,ATTTGAAC,0.149 E-score
11,ACTCTGAG,-0.154 E-score
12,CACGGTCA,-0.0115 E-score
13,GTACAAAA,0.266 E-score
14,CCGTACGA,-0.0569 E-score
15,ACCTTGTA,-0.0398 E-score
16,AAGATGGG,0.0446 E-score
17,CTGACTGA,-0.122 E-score
18,CGGCGACC,-0.323 E-score
19,TACTATGA,0.228 E-score
20,AGGTACTG,0.128 E-score
21,GGCTGCGA,-0.0711 E-score
22,GATTTTGC,0.0176 E-score

row,Sequence,binding signal
1,CTGCCCAC,-0.168 E-score
2,GAGTCCGA,-0.026 E-score
3,CGTACTAC,0.339 E-score
4,GAACAGCA,-0.149 E-score
5,CTCTTCAG,-0.0656 E-score
6,ATTCTGGG,-0.155 E-score
7,ATCATGAT,0.0908 E-score
8,GCCGGTAC,-0.103 E-score
9,GATCAAGA,0.066 E-score
10,CGTTAAGC,-0.167 E-score
11,AGTCCGGG,-0.313 E-score
12,AATATACA,0.388 E-score
13,GAGAACCA,-0.0434 E-score
14,AGTCCACG,-0.173 E-score
15,AGATCTAA,0.163 E-score
16,ACCTTGCT,-0.111 E-score
17,CTTCGTTA,0.0316 E-score
18,AGCTTCGG,-0.282 E-score
19,ATGGTCCG,-0.16 E-score
20,ATGTTCGG,-0.135 E-score
21,CAACTGTA,0.0765 E-score
22,AGCGTCAT,-0.0894 E-score

row,Sequence,binding signal
1,AAGTATCC,0.0627 E-score
2,CTCCAAGC,-0.344 E-score
3,ATTTTAGC,0.188 E-score
4,ACCGACCA,-0.202 E-score
5,TCACGGGA,-0.221 E-score
6,GACCCAAC,-0.245 E-score
7,CGTGACTC,-0.11 E-score
8,GTGAGAGA,-0.123 E-score
9,CAAGCTAC,-0.00347 E-score
10,AACATTTG,0.0986 E-score
11,ATGACGTC,-0.0569 E-score
12,AAACCAGA,0.00102 E-score
13,AGTCAAAA,0.108 E-score
14,GATTCCGC,-0.215 E-score
15,GAGTCATA,-0.0124 E-score
16,GCTGGAGA,-0.105 E-score
17,AACCAAAA,0.15 E-score
18,ACTCCGGG,-0.202 E-score
19,AGAAGTAT,0.334 E-score
20,GGCCCCAA,-0.305 E-score
21,ACCCACCT,-0.0596 E-score
22,AAGCCTAT,0.106 E-score

row,Sequence,binding signal
1,ACACATGG,0.085 E-score
2,CATCGGCC,-0.265 E-score
3,CCCGCCCA,-0.119 E-score
4,CTATACGA,-0.0102 E-score
5,CACCAGTC,-0.195 E-score
6,ATACCGCG,0.132 E-score
7,ACTTTGTC,-0.0997 E-score
8,ACAAAGCG,-0.0938 E-score
9,TCGGGCAA,-0.0936 E-score
10,CGATGGTC,-0.202 E-score
11,AGCCAATG,-0.117 E-score
12,GACAAACC,0.0214 E-score
13,TGATACCA,0.183 E-score
14,CATCATTC,-0.105 E-score
15,GACTGTAA,-0.0385 E-score
16,AGCTGTAC,0.0948 E-score
17,CCGACCAG,-0.273 E-score
18,GCTTTGAA,0.00953 E-score
19,AACGACGT,0.0544 E-score
20,GTGCGCAC,0.201 E-score
